{"source": "the supplement of paper PMC11417369", "note": "± gives the standard deviation of the averaged measurements. This is one part of the list."}
{"system": "PfAP2-G AP2 domain (GST-tagged)", "assay": "gcPBM binding intensity (ln(normalized median fluorescence intensity)); higher = stronger DNA binding", "outline": "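GST-fused DNA-binding domains of P. falciparum, expressed in E. coli, were applied at about 25 μg on average for 1 h to an Agilent 4 × 180k array of primer-extended double-stranded 36-bp intergenic genomic probes and negative controls. Binding intensity is the highest Masliner-normalised natural-log median intensity across replicate spots of either probe orientation, measured with Alexa488 anti-GST antibody and a 488 nm scan.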"}
{"sequence": "TCTTTTTTCTTTTTTTCACACATTATTTTTTAAATA [CACACA_site5197]", "gcPBM binding intensity (ln)": "9.95 ± 0.071"}
{"sequence": "GTAGTTACATATAGGGTGCTCCAATAGTTGACCTCG", "gcPBM binding intensity (ln)": "10.3 ± 0.21"}
{"sequence": "TCATAGGTTCAAAAGGGTACATTAATACATACATAT [XGTACX_site2236]", "gcPBM binding intensity (ln)": "11.1 ± 0.57"}
{"sequence": "AAATAAAAAAAGGGAACATGCAATATGTACAAATAT [TGCATGCA_site869]", "gcPBM binding intensity (ln)": "11.2 ± 0.64"}
{"sequence": "ATTTTTTATGTTAATGCATGCTCATGTGTATTTCAT [TGCATGCA_site751]", "gcPBM binding intensity (ln)": "10.1 ± 0.16"}
{"sequence": "TTATCTTTTTTCGTTTGTACGTAACCATATTACTAT [XGTACX_site8853]", "gcPBM binding intensity (ln)": "11.4 ± 0.86"}
{"sequence": "AAATATAACATCATCACACACATATACTTTATATGC [CACACA_site1126]", "gcPBM binding intensity (ln)": "9.8 ± 0.057"}
{"sequence": "AGCTTCATATTATGGAGTACTATTAAAAATAAATAA [XGTACX_site2649]", "gcPBM binding intensity (ln)": "11.3 ± 0.83"}
{"sequence": "AGATATTATAAAATATGTACATATATATATATATAT [XGTACX_site2088]", "gcPBM binding intensity (ln)": "11.3 ± 0.78"}
{"sequence": "TAATTAGATTATTTTTGTACATATTATTATAGGTTA [XGTACX_site2077]", "gcPBM binding intensity (ln)": "10.8 ± 0.47"}
{"sequence": "AAAGTAATAATGATTTGTACATATATATATATATAT [XGTACX_site8821]", "gcPBM binding intensity (ln)": "10.7 ± 0.49"}
{"sequence": "ATGCAAATGTGCATCACACACACTAATGGGTATGTA [CACACA_site2893]", "gcPBM binding intensity (ln)": "9.85 ± 0.13"}
{"sequence": "GGAATATATATACATACACACATATATATATATATA [CACACA_site1666]", "gcPBM binding intensity (ln)": "10.2 ± 0.44"}
{"sequence": "AAAAATAATTATTCGTGTACAAAAAAAAAAATATAA [XGTACX_site439]", "gcPBM binding intensity (ln)": "11.3 ± 0.7"}
{"sequence": "ATAAATATACATTATACCGACCATGTGGATATTATA [XGTACX_negctrl_site241]", "gcPBM binding intensity (ln)": "10.2 ± 0.11"}
{"sequence": "TTTTATTATAATAATTGTACAAAAATTATTTAATAT [XGTACX_site6054]", "gcPBM binding intensity (ln)": "10.9 ± 0.5"}
{"sequence": "TTAATTTATTATCTTTGTACACAATTAAAAAAAAAA [XGTACX_site3469]", "gcPBM binding intensity (ln)": "11.3 ± 0.99"}
{"sequence": "AGAAAAAAAAAAAAAAAAATATATATATATATATAT [TGCATGCA_negctrl_site411]", "gcPBM binding intensity (ln)": "9.79 ± 0.46"}
{"sequence": "GTATATATATACCATTGTACTTTCGTAAAAATATTT [XGTACX_site4846]", "gcPBM binding intensity (ln)": "11.1 ± 0.78"}
{"sequence": "AAAAAAAAAAAAAAAACACACATACACGCACGCACA [CACACA_site7569]", "gcPBM binding intensity (ln)": "10.7 ± 0.27"}
{"sequence": "AAAAAAAAAAAAAAAAGTACAAGCATTGCGTTTTAA [XGTACX_site6075]", "gcPBM binding intensity (ln)": "11.5 ± 0.83"}
{"sequence": "ATATATATAAATAAATGTACATAAATAATATATTAT [XGTACX_site5419]", "gcPBM binding intensity (ln)": "11.1 ± 0.48"}
{"sequence": "TATATATATATATATATATTTATGTATTTATTTAAT [TGCATGCA_negctrl_site179]", "gcPBM binding intensity (ln)": "10.2 ± 0.89"}
{"sequence": "TTTTGGTTTTGTTCTACACACATAAAAAAAAAAAAG [CACACA_site2276]", "gcPBM binding intensity (ln)": "10.4 ± 0.5"}
{"sequence": "TTTCTATTTATTAATACATGCAAAATAAAGTAAAGT [TGCATGCA_site209]", "gcPBM binding intensity (ln)": "10.3 ± 0.4"}
{"sequence": "ATATATCAATATGGAATATATATATATATATATATA [TGCATGCA_negctrl_site502]", "gcPBM binding intensity (ln)": "9.96 ± 0.58"}
{"sequence": "TTATTTTTATATTTTAATTTTAAAAAAATTTTAATT [CACACA_negctrl_site777]", "gcPBM binding intensity (ln)": "9.73 ± 0.23"}
{"sequence": "ATTATACATATTATATGTACATATATAAATAAATAA [XGTACX_site7076]", "gcPBM binding intensity (ln)": "11.1 ± 0.57"}
{"sequence": "CTTTGTAGTATATTAACACACAACTGTTTATAATAT [CACACA_site6038]", "gcPBM binding intensity (ln)": "10.1 ± 0.17"}
{"sequence": "ATATATTATAGGTACACACACATATAAGGGATTATA [CACACA_site6154]", "gcPBM binding intensity (ln)": "11.3 ± 0.92"}
{"sequence": "ATATACATATATATTGCATGCAGAGAGTATTTATAA [TGCATGCA_site646]", "gcPBM binding intensity (ln)": "9.95 ± 0.22"}
{"sequence": "ATATATATATATATTGTGCACAAAAAAAAATAAGCA", "gcPBM binding intensity (ln)": "10.7 ± 0.45"}
{"sequence": "GGAAAGACAGTTCACAGTACCCAGGAAATCTACGGA [XGTACX_site1996]", "gcPBM binding intensity (ln)": "10.8 ± 0.51"}
{"sequence": "TTCTTTAAAAAATTCGATAAAAAAAAAAAAAGAAAA [CACACA_negctrl_site242]", "gcPBM binding intensity (ln)": "9.58 ± 0.21"}
{"sequence": "TATATACTCATGCGCACACACAAGTGGGAAATTTGG [CACACA_site5056]", "gcPBM binding intensity (ln)": "10.5 ± 0.27"}
{"sequence": "TTATTAAATATGTACACACGTACATTTTATAAATGA [CACACA_site2387]", "gcPBM binding intensity (ln)": "11.7 ± 1.1"}
{"sequence": "ATAATAATAAAATATATATACAAAGGTGAAATTATA [TGCATGCA_negctrl_site197]", "gcPBM binding intensity (ln)": "9.995 ± 0.007"}
{"sequence": "TATTTTTTTTTCCATTGTACATTTTTGATATTTTTC [XGTACX_site744]", "gcPBM binding intensity (ln)": "10.8 ± 0.43"}
{"sequence": "TATATATATATTTAGTGTACTTAAAAAAAATAATAA [XGTACX_site5454]", "gcPBM binding intensity (ln)": "11.5 ± 0.96"}
{"sequence": "AACAACATGTAGACGCGTACCAACATCAGATCCTAT [XGTACX_site4071]", "gcPBM binding intensity (ln)": "11.2 ± 0.71"}
{"sequence": "ATTATAATTATATATGCATGTAGCATTTTCTATTTT [TGCATGCA_site66]", "gcPBM binding intensity (ln)": "9.49 ± 0.25"}
{"sequence": "AACAAATTTATCCAAAGTACAAAATATCATTTCTTA [XGTACX_site4543]", "gcPBM binding intensity (ln)": "10.7 ± 0.5"}
{"sequence": "TATAAATACTAAAAAAGTACAAAATTTCATAAAAAA [XGTACX_site2709]", "gcPBM binding intensity (ln)": "11.2 ± 0.69"}
{"sequence": "GGAAAATCTAATCATTTAATATTTATTTATCTAATT [GTGCAC_negctrl_site553]", "gcPBM binding intensity (ln)": "9.37 ± 0.24"}
{"sequence": "ATTTTATATAATACATGTACAAAAGTTTAAATTTAT [XGTACX_site6196]", "gcPBM binding intensity (ln)": "11.1 ± 0.4"}
{"sequence": "TTATAATATAGCAATTATTAAATAGGATCAAATGAA [CACACA_negctrl_site632]", "gcPBM binding intensity (ln)": "9.92 ± 0.071"}
{"sequence": "TTGGTGGATAAATTTACACACAATAACTTTCGTTCA [CACACA_site6358]", "gcPBM binding intensity (ln)": "10.1 ± 0.17"}
{"sequence": "AGAAGAAAAGTAAAAAGTACATTATTCATGGCCTAT [XGTACX_site5601]", "gcPBM binding intensity (ln)": "11.1 ± 0.57"}
{"sequence": "TATTTGTAAATTATTTGGGTGTGTAGGGGATATTCT [XGTACX_negctrl_site204]", "gcPBM binding intensity (ln)": "10.13 ± 0.071"}
{"sequence": "CGTTCATATTATTATAGTACATATTATTATAGTTTT [XGTACX_site1550]", "gcPBM binding intensity (ln)": "10.9 ± 0.45"}
{"sequence": "TTTTTTTTTTTATTTGCATGCGGTGTTCATAATATT [TGCATGCA_site199]", "gcPBM binding intensity (ln)": "10.02 ± 0.092"}
{"sequence": "AGAGCTGTTTTTTATGCATGTAGTTTAGAAAATACA [TGCATGCA_site257]", "gcPBM binding intensity (ln)": "9.96 ± 0.2"}
{"sequence": "TTTATCTTATTTTTATGTACTTATTTTATAAAAAAA [XGTACX_site7730]", "gcPBM binding intensity (ln)": "11.4 ± 1"}
{"sequence": "TTTTTCCTAACATATTATATACTTGAATATTTATTA [CACACA_negctrl_site156]", "gcPBM binding intensity (ln)": "9.74 ± 0.12"}
{"sequence": "AAACAAATATTTATCACAATGTCATTTTGTTAACAT [GTGCAC_negctrl_site171]", "gcPBM binding intensity (ln)": "9.835 ± 0.035"}
{"sequence": "ATATAAGAAATAAAGAAAAATGTGTTTTTTTTTTTT [XGTACX_negctrl_site396]", "gcPBM binding intensity (ln)": "9.51 ± 0.18"}
